In all, about 110,000 compounds went through this assay and about 230 (0.21%) showed an effect of 50% or more. This is one part of the list.
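Also: 30 min substrate incubation versus DMSO and 10 µM JCP410 controls.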

DPAP1, sequence (Q8IIJ9 whole entry, looked up): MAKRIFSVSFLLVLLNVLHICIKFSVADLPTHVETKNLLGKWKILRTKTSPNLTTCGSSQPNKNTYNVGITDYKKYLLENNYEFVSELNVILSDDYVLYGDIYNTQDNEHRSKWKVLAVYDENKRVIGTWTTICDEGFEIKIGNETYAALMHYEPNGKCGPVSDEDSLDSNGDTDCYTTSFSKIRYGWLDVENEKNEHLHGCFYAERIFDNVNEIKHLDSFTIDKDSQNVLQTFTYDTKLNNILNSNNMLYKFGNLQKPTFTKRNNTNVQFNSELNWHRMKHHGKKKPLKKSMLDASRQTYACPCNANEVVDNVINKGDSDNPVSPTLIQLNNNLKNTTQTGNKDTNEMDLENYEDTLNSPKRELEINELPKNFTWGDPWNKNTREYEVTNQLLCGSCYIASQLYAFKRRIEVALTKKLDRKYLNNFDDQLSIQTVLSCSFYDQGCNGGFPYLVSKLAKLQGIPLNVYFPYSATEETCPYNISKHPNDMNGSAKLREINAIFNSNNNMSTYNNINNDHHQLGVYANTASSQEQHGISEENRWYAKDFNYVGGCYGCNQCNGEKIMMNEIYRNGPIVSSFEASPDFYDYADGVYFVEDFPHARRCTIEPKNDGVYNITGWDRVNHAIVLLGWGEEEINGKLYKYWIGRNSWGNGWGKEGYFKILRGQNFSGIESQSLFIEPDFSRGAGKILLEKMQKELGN

The assay concerns the target DPAP1 (Plasmodium falciparum, UniProt Q8IIJ9). Description: primary screen, percent inhibition; read by cleavage of a fluorogenic dipeptide substrate; higher = more effect of the substance. On the set-up: species or system P. falciparum D10 trophozoite lysates; single well.
Regarding `CC1=C(c2ccc(C)cc2)S(=O)(=O)N=C1NCCN1CCOCC1`, the “% Inhibition @ 10 uM” value was found to be 0.623%.
Regarding `CN(C)c1ccc(C2OCC3(CO2)SC(=O)NC3=O)cc1` (stereo not drawn), the “% Inhibition @ 10 uM” value was 0.751%.
To `CCCc1nnc2n1Nc1nc3ccccc3nc1S2` belongs -3.64%; to `CCCc1ncc(C(O)c2ccccc2OC)n1C` (stereo not drawn), 4.67%; to `O=c1oc2c3c(ccc2c2ccccc12)OCN(Cc1ccc2c(c1)OCO2)C3`, -2.57%.
Regarding `Cc1cc(=O)n2nc(N(C)CC(=O)NCCC3=CCCCC3)sc2n1`, the “% Inhibition @ 10 uM” value was -0.281%.
To `CCOC(=O)c1c(C)c(-c2ccccc2)n(CC(=O)NCCCN(CC)CC)c1C` belongs -1.66%; to `O=C(O)c1cccc(S(=O)(=O)N2CCc3ccccc3C2)c1`, 1.37%.
As for `COc1cccc(OC)c1-c1ccc(C(=O)N[C@@H](CC(C)C)C(=O)NCC#N)cc1Cl`, the “% Inhibition @ 10 uM” value is listed as -6.98%.
To `COc1ccc(Cc2nnc(C(=O)NCCCO)o2)cc1OC` belongs 3%.
To `CCOC(=O)C1CCCN(Cc2ccc(-c3ccccc3)cc2)C1` (stereo not drawn) belongs 4.73%; to `Cc1cccc(Oc2nc3c(C)cccn3c(=O)c2/C=C(\C#N)C(=O)NC2CCCCC2)c1C`, -3.23%; to `COC(=O)c1c(O)cn(-c2ccc(C)c(C)c2)c1C`, -0.436%.
As for `Cc1ccc(Nc2nc(OC(C(F)(F)F)C(F)(F)F)nc(N3CCOCC3)n2)cc1`, the “% Inhibition @ 10 uM” value is given as 0.00178%.
To `COCCCNC(=O)C1c2ccccc2C(=O)N(C)C1c1cn(C)c2ccccc12` (stereo not drawn) belongs -0.668%; to `CC(C)CC(C(=O)NCC#N)c1cccc(-c2csc(N3CC(C)NC(C)C3)n2)c1` (stereo not drawn), 3.19%.
To `CCc1cc2c(NCC3CCCO3)nc(C)nc2s1` (stereo not drawn) belongs -4.43%; to `CC(CN1CCN(Cc2ccccc2)CC1)OC(=O)c1ccco1` (stereo not drawn), -7.46%.
With `Cc1nc(SCC(=O)NC2CCCC2)nc(O)c1Cc1ccccc1` the figure was -0.45%.
Regarding `COc1cccc(OCC(=O)N(Cc2nc(-c3cccc(C)c3)no2)C(C)C)c1`, the “% Inhibition @ 10 uM” value is recorded as -0.646%.
To `COc1ccc(S(=O)(=O)N2CCC(CN3C(=O)c4cccc5cccc(c45)C3=O)CC2)cc1` belongs 4.75%.
As to `CC(C)NC(=O)c1cnn2c(C(F)(F)F)cc(-c3cccs3)nc12`, the “% Inhibition @ 10 uM” value was 3.76%.
With `c1ccc(-c2nnc3sc(-c4cnccn4)nn23)cc1` the figure was 0.0539%.
On to `CCOc1ccc2nc(SCC(=O)NCc3ccc4c(c3)OCO4)sc2c1`, for which the “% Inhibition @ 10 uM” value is on record as -4.28%.
Take `O=C(C(Cc1ccccc1)NS(=O)(=O)c1cccs1)N1CCCCCC1` (stereo not drawn): the “% Inhibition @ 10 uM” value is -6.5%.
Take `O=C(O)COC(c1ccccc1)C(F)(F)F` (stereo not drawn): the “% Inhibition @ 10 uM” value is on record as -7.55%.
To `CC1(C)OCCN1C(=O)C(=O)c1c[nH]c2ccccc12` belongs -2.68%; to `CC1=C(C(=O)OC2CCCCC2)C(c2cccc(Cl)c2Cl)C2=C(O)CC(C)(C)CC2=N1` (stereo not drawn), 2.78%.
To `Cc1ccc(C(=O)N/C(=C\c2ccco2)C(=O)Nc2ccccc2)cc1C` belongs -4.49%; to `Cc1ccc(-c2cc(C(=O)NC3CC3)c3ccccc3n2)o1`, 3.36%.
To `Cc1c(CN2CCC(N3CCCCC3)CC2)c(=O)n(-c2ccccc2)n1C` belongs 3.15%; to `Nc1no[n+]([O-])c1C(=O)NCC(CC(=O)O)c1ccccc1` (stereo not drawn), 6.17%.
For the compound `COc1ccc(NC(=O)c2cc3ccccc3oc2=O)cc1`, the “% Inhibition @ 10 uM” value is -2.28%.
`COc1ccc(C2=NCCn3cccc32)cc1`: the “% Inhibition @ 10 uM” value amounted to 3.16%.
To `CCc1ccc(-c2cc3c(=O)n(CC(=O)NCc4cccc(Cl)c4)nc(C)n3n2)cc1` belongs 3.87%; to `COc1ccc(C(=O)O/N=C(\N)c2ccc(Br)cc2)c(OC)c1`, -1.17%; to `COc1ccccc1-c1nnc2n(Cc3ccc(C)cc3)c(=O)c3ccccc3n12`, -1.72%.
With `C=CCNC(=O)COc1ccc(-c2ccc(C#N)cc2)cc1` the figure was -4.66%.
`COc1cccc(C2c3c(oc4ccccc4c3=O)C(=O)N2Cc2ccccc2)c1` (stereo not drawn): the “% Inhibition @ 10 uM” value is -0.519%.
Take `CCc1nc2ccccc2c(NC(=O)CNC(C)Cc2ccccc2)c1C` (stereo not drawn): the “% Inhibition @ 10 uM” value is given as -1.42%.
With `CCCNc1ncnc2c1cnn2-c1ccccc1` the figure was 32.9%.
In the case of `Cc1nn(CC(=O)N2CCC3(CC2)OCCO3)c(=O)c2nn(-c3ccccc3)c(C)c12`, the “% Inhibition @ 10 uM” value is listed as -1.57%.
To `CCCN(CCC)C(=O)Cn1c(=O)n(CCOC)c(=O)c2sc3ccccc3c21` belongs -1.21%.
With `FC(F)(F)C1(C(F)(F)F)N=C(c2cccnc2)OC(N2CCCCC2)=N1` the figure was -1.72%; with `N#Cc1c2c(c(NCCN3CCCCC3)n3c1nc1ccccc13)CCC2`, 2.09%.
To `CCN(CC)C(=O)/C(=C/c1ccccc1)NC(=O)c1cccc(Br)c1` belongs -1.07%; to `COc1ccc(-c2cc(C(F)F)n3ncc(C(=O)Nc4cc(C)ccc4OC)c3n2)cc1`, -3.65%; to `CCn1cc(C=C2C(=O)NC(=O)NC2=O)c2ccccc21`, -1.25%.
Take `CCCN1C(=O)c2[nH]nc(-c3c(C)cc(C)cc3O)c2C1c1cccc(O)c1` (stereo not drawn): the “% Inhibition @ 10 uM” value is 1.67%.
For the compound `Cc1cccc(CCNC(=O)NCc2noc3ccccc23)c1`, the “% Inhibition @ 10 uM” value was 0.857%.
To `Cc1cccc(C(=O)Nc2ccc(S(=O)(=O)N3CCCCC3)cc2)c1` belongs -1.28%; to `CC(CCc1ccccc1)NC(=O)C1CCN(S(=O)(=O)N2CCOCC2)CC1` (stereo not drawn), -3.12%; to `c1ccc(-c2cn(-c3ccccc3)nc2-c2ccccc2)cc1`, -0.744%.
`CCOc1ccc(N2C(=O)c3ccc([N+](=O)[O-])cc3C2=O)cc1`: the “% Inhibition @ 10 uM” value is -0.268%.
Regarding `O=C(Cc1nc2ccccc2[nH]1)N1CCCCC1`, the “% Inhibition @ 10 uM” value is recorded as 2.22%.
With `CC1CCN(CCCNC(=O)c2coc3nc4ccccc4nc23)CC1` the figure was -0.971%; with `Cc1c2cnn(CC(=O)N3CCN(C4CCCCC4)CC3)c(=O)c2c(C)n1Cc1ccc(F)cc1`, -0.447%.
Take `Cc1cc(C)c(C(=O)/C=C/c2ccccn2)c(O)n1`: the “% Inhibition @ 10 uM” value is -1.93%.
With `CCn1c2ccccc2c2nnc(N3CCN(c4ccccn4)CC3)nc21` the figure was -5.66%.
To `CC(C)(C)c1cc(-c2nnc(S)n2-c2ccccc2F)[nH]n1` belongs 5.5%; to `O=C(Nc1nnc(C23C[C@H]4C[C@@H](C2)C[C@@H](C3)C4)s1)C(=O)c1c[nH]c2ccccc12`, 0.655%.
As to `O=S(=O)(O)c1cc(-n2nc3c(c2O)CCC3)ccc1Oc1ccccc1`, the “% Inhibition @ 10 uM” value is on record as 4.7%.
As to `CCCCn1c(CN2C(=O)c3ccccc3C2=O)nc2ccccc2c1=O`, the “% Inhibition @ 10 uM” value was -0.992%.
In the case of `Cc1c(Cl)cccc1NC(=O)c1cc2nc(C(F)F)cc(C(F)F)n2n1`, the “% Inhibition @ 10 uM” value is given as -2.85%.
Take `CCN(CC)CCSc1nc2cc(C)c(C)cc2[nH]1`: the “% Inhibition @ 10 uM” value was -0.267%.
To `CCOC(=O)N1CCN(CC[C@@H](C)CCC=C(C)C)CC1` belongs -3.8%.
For the compound `NC(=O)c1ccc(NC(=O)CNS(=O)(=O)c2ccc(Cl)cc2)cc1`, the “% Inhibition @ 10 uM” value was -6.25%.
As to `O=C(c1nc2nc(-c3ccccc3)cc(C(F)(F)F)n2n1)N1CCOCC1`, the “% Inhibition @ 10 uM” value came to 1.04%.
With `CN(C)C(=O)N1CCCC(C(=O)NCc2cccs2)C1` (stereo not drawn) the figure was -1.34%; with `CCCOc1ccc(N2C(=O)CC(N3CCCCC3)C2=O)cc1` (stereo not drawn), -0.996%.
To `Cc1cc(N)ccc1NC(=O)c1ccccc1Cl` belongs 4.31%; to `COc1ccc(/C=C2\SC(c3ccccc3)=NC2=O)cc1C`, 8.74%; to `N#C/C(=C\c1ccncc1)c1nc2ccccc2[nH]1`, 2.8%.
With `O=C(c1ccc(COc2ccc(Cl)cc2)o1)N1N=C(C(F)F)CC1(O)C(F)F` (stereo not drawn) the figure was -4.15%; with `Cn1ncc([N+](=O)[O-])c1C(=O)Nc1ccc(C2CCCCC2)cc1`, 2.38%.
Regarding `CC(Sc1nc2sc3c(c2c(=O)n1-c1ccccc1)CC(C)(C)OC3)C(=O)O` (stereo not drawn), the “% Inhibition @ 10 uM” value was -3.26%.
With `CCC(C)N(CCNC(=O)c1ccc2nc(N3CCOCC3)sc2c1)C1CCCCC1` (stereo not drawn) the figure was 5.73%.
To `NS(=O)(=O)c1ccc(CCNC(=O)Cn2c(=O)c3cccn3c3cccnc32)cc1` belongs -4.46%.
To `Cc1nc2ccccn2c(=O)c1C(=O)O` belongs 3.24%.
In the case of `CCN(CC)c1ccc(/C=c2\sc3nc4ccccc4n3c2=O)c(O)c1`, the “% Inhibition @ 10 uM” value is listed as 3.15%.
For `O=C(O)c1ccc(CNS(=O)(=O)c2ccc(C(=O)O)cc2)cc1`, the “% Inhibition @ 10 uM” value is reported as -6.82%.
To `O=C(CSc1nc[nH]n1)c1ccc(Br)cc1` belongs 2.3%; to `COc1ccc(CNCc2ccccc2OC)cc1`, -7.94%.
With `O=C(NC1(C(F)(F)F)NC(=O)N(Cc2ccccc2)C1=O)c1ccccc1Cl` (stereo not drawn) the figure was -1.52%; with `Cc1ccc(CSc2nc3ccc(C(=O)NCCCN4CCCC4=O)cc3n2C)cc1`, 5.82%.
With `CC(NC(=O)COc1ccc(-c2nn(C)c(=O)c3ccccc23)cc1)c1ccccc1` (stereo not drawn) the figure was -3.23%; with `Cc1cccn2c(=O)c3cc(C(=O)NCC4CCCO4)c(=N)n(Cc4cccnc4)c3nc12` (stereo not drawn), -1.69%; with `CC(C)COc1ccc2c(c1)c1c(n2C)C(=O)CCC1`, 6.06%.
Consider `COCCN1C=C(C(=O)OC)C(c2ccc(OC)c(O)c2)C(C(=O)OC)=C1`, for which the “% Inhibition @ 10 uM” value was -1.33%.
In the case of `CC(C)c1ccc(NC(=O)NC2CCCCC2)cc1`, the “% Inhibition @ 10 uM” value is -0.351%.
As to `O=C1CC(Cc2ccc(Cl)cc2)C(=O)N1c1ccc(Cl)cc1` (stereo not drawn), the “% Inhibition @ 10 uM” value is given as -1.42%.
With `COCCCNC(=O)Cn1c(C)c(C(=O)C(F)(F)F)c2ccccc21` the figure was -5.1%; with `CCCCOc1ccc2ccccc2c1/C=C1\SC(=O)NC1=O`, -0.736%.

For the origin of these results see PMC6919601, “Identification of Plasmodium dipeptidyl aminopeptidase allosteric inhibitors by high throughput screening” (PLoS ONE, 2019).
